According to the supplement of paper PMC7125110:
± gives the standard error. Variants at the background level are over-represented here.

B1: glmS ribozyme (parent)
chain: AUAAAAGCGCCAGAACUACAGAAAUGUAGUUGACGAGGAGGAGGUUUAUCGAAUUUUCGGCGGAUGCCUCCAAA

What was measured:
Settings in all cases: with glucosamine-6-phosphate
glucosamine-6-phosphate [1] = variants of: B1; assay: self-cleavage kobs at 40 uM GlcN6P; higher = faster cleavage; RNA array
How it was run: (§1)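 The measurements used barcoded ribozyme variants on sequenced MiSeq chips, transcribed in situ by E. coli RNA polymerase and tracked at 37 °C with a hybridised Cy3 probe. Glucosamine-6-phosphate, 40 μM to 10 mM in HEPES/KCl/Mg(OAc)2 buffer, was flowed in while tiles were imaged over ~14 h. Baseline-normalised signals, also normalised to non-cleaving reference variants, gave per-tile medians that were fit to one- or two-exponential decays for kobs. kcat and KM resulted from weighted Michaelis–Menten fits across concentrations.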

glucosamine-6-phosphate [2] = variants of: B1; assay: self-cleavage kobs at 640 uM GlcN6P; higher = faster cleavage; RNA array
How it was run: as §1

glucosamine-6-phosphate [3] = variants of: B1; assay: self-cleavage kobs at 10000 uM GlcN6P; higher = faster cleavage; RNA array
How it was run: as §1

glucosamine-6-phosphate [4] = variants of: B1; assay: self-cleavage kobs at 2500 uM GlcN6P; higher = faster cleavage; RNA array
How it was run: as §1

glucosamine-6-phosphate [5] = variants of: B1; assay: self-cleavage kobs at 160 uM GlcN6P; higher = faster cleavage; RNA array
How it was run: as §1

Row | Variant | self-cleavage kobs at 40 uM GlcN6P (glucosamine-6-phosphate [1]) [s⁻¹] | self-cleavage kobs at 640 uM GlcN6P (glucosamine-6-phosphate [2]) [s⁻¹] | self-cleavage kobs at 10000 uM GlcN6P (glucosamine-6-phosphate [3]) [s⁻¹] | self-cleavage kobs at 2500 uM GlcN6P (glucosamine-6-phosphate [4]) [s⁻¹] | self-cleavage kobs at 160 uM GlcN6P (glucosamine-6-phosphate [5]) [s⁻¹]
1 | C50U G59U | < 1e-05 | < 1e-05 | < 1e-05 | – | –
2 | C50U G60A | < 1e-05 | – | < 1e-05 | – | –
3 | C50U G62C | < 1e-05 | < 1e-05 | < 1e-05 | < 1e-05 | –
4 | C50U U55C | < 1e-05 | – | – | – | < 1e-05
5 | G51A G63A | < 1e-05 | – | < 1e-05 | < 1e-05 | < 1e-05
6 | G51A U55A | < 1e-05 | < 1e-05 | – | – | < 1e-05
7 | G51C A53C U57G | < 1e-05 | – | < 1e-05 | – | –
8 | G51C A64G | < 1e-05 | < 1e-05 | < 1e-05 | – | < 1e-05
9 | G51C C68A | < 1e-05 | – | – | – | –
10 | G51C U54A | < 1e-05 | – | – | – | –
11 | G51C U65A | < 1e-05 | < 1e-05 | < 1e-05 | – | < 1e-05
12 | A52C C58G G62U C71U | < 1e-05 | – | – | < 1e-05 | –
13 | A52C C61G | < 1e-05 | < 1e-05 | – | – | –
14 | A52C C67G | < 1e-05 | – | – | – | –
15 | A52C C71U | < 1e-05 | – | – | – | –
16 | A52C G59C | < 1e-05 | < 1e-05 | – | – | < 1e-05
17 | A52C U55A | < 1e-05 | – | – | – | –
18 | A52C U56G | < 1e-05 | < 1e-05 | – | – | < 1e-05
19 | A52G A64G | 2.83e-05 ± 7.3e-06 | – | – | – | –
20 | A52G C61U | < 1e-05 | – | – | < 1e-05 | < 1e-05
21 | A52G C68U | 2.35e-05 ± 7.7e-06 | 0.00015 ± 1.7e-05 | 0.000858 ± 9.2e-05 | 0.000377 ± 4e-05 | 9.18e-05 ± 1.1e-05
22 | A52U C68A | < 1e-05 | – | – | – | –
23 | A52U G59C | < 1e-05 | < 1e-05 | < 1e-05 | < 1e-05 | –
24 | A52U U54G | < 1e-05 | – | – | – | –

Row | Variant | self-cleavage kobs at 40 uM GlcN6P (glucosamine-6-phosphate [1]) [s⁻¹] | self-cleavage kobs at 640 uM GlcN6P (glucosamine-6-phosphate [2]) [s⁻¹] | self-cleavage kobs at 10000 uM GlcN6P (glucosamine-6-phosphate [3]) [s⁻¹] | self-cleavage kobs at 2500 uM GlcN6P (glucosamine-6-phosphate [4]) [s⁻¹] | self-cleavage kobs at 160 uM GlcN6P (glucosamine-6-phosphate [5]) [s⁻¹]
25 | A52U U65A | < 1e-05 | < 1e-05 | 2.95e-05 ± 9.7e-06 | – | –
26 | A53C G60U | < 1e-05 | < 1e-05 | – | – | < 1e-05
27 | A53C G62A | < 1e-05 | – | – | – | –
28 | A53G C67A | 0.000314 ± 3.3e-05 | 0.00067 ± 0.00014 | 0.00957 ± 0.0018 | 0.000612 ± 0.00025 | –
29 | A53G G59C | < 1e-05 | < 1e-05 | < 1e-05 | – | < 1e-05
30 | A53G G60C | < 1e-05 | – | < 1e-05 | – | –
31 | A53G U54C | 0.000508 ± 7.8e-05 | – | – | – | –
32 | A53G U57G | < 1e-05 | – | – | – | –
33 | A53U C58U | < 1e-05 | – | – | – | –
34 | A53U C70U | 0.000741 ± 6.7e-05 | 0.00682 ± 0.0013 | 0.0335 ± 0.0084 | 0.00471 ± 0.0013 | 0.00102 ± 0.00023
35 | A53U G60C U69C | < 1e-05 | – | – | – | –
36 | A53U G62A | < 1e-05 | – | < 1e-05 | < 1e-05 | < 1e-05
37 | A53U G62C | < 1e-05 | < 1e-05 | < 1e-05 | < 1e-05 | –
38 | A53U G66A C67U | 7.59e-05 ± 1.6e-05 | – | – | – | –
39 | A53U U56A | 0.000172 ± 2.1e-05 | 0.00169 ± 0.0002 | 0.00667 ± 0.00065 | 0.00313 ± 0.00052 | 0.000573 ± 8e-05
40 | U54A C67U | 0.000285 ± 9.7e-05 | 0.00116 ± 0.00032 | 0.00584 ± 0.0013 | 0.00976 ± 0.0027 | 0.000312 ± 9.1e-05
41 | U54A G59A | < 1e-05 | – | – | – | –
42 | U54A U56A | 0.00022 ± 4e-05 | 0.00224 ± 0.00048 | 0.00887 ± 0.0017 | 0.00712 ± 0.002 | 0.000706 ± 0.0002
43 | U54C C61A | < 1e-05 | – | < 1e-05 | – | –
44 | U54C C67G | 5.95e-05 ± 1.1e-05 | 0.000519 ± 7.3e-05 | – | – | 0.000179 ± 2.6e-05
45 | U54C C71A | 0.000112 ± 1.4e-05 | 0.00133 ± 0.00019 | 0.0039 ± 0.00049 | 0.00192 ± 0.00026 | 0.000296 ± 4.1e-05
46 | U54C G62A | < 1e-05 | – | < 1e-05 | – | –
47 | U54G C61G | < 1e-05 | – | – | – | –
48 | U54G C70U | 0.00112 ± 0.00013 | – | – | – | –

Row | Variant | self-cleavage kobs at 40 uM GlcN6P (glucosamine-6-phosphate [1]) [s⁻¹] | self-cleavage kobs at 640 uM GlcN6P (glucosamine-6-phosphate [2]) [s⁻¹] | self-cleavage kobs at 10000 uM GlcN6P (glucosamine-6-phosphate [3]) [s⁻¹] | self-cleavage kobs at 2500 uM GlcN6P (glucosamine-6-phosphate [4]) [s⁻¹] | self-cleavage kobs at 160 uM GlcN6P (glucosamine-6-phosphate [5]) [s⁻¹]
49 | U54G U55G | 0.00108 ± 0.00018 | 0.00673 ± 0.0015 | – | 0.0105 ± 0.0029 | 0.00148 ± 0.00028
50 | U55A C61U | < 1e-05 | – | – | – | < 1e-05
51 | U55A C70G | 3.74e-05 ± 7.5e-06 | 0.000148 ± 1.6e-05 | 0.000101 ± 9.9e-06 | 0.000117 ± 1.2e-05 | 0.000102 ± 1.2e-05
52 | U55A G60U | < 1e-05 | – | – | – | < 1e-05
53 | U55C A64U | < 1e-05 | – | – | – | –
54 | U55C C61G | < 1e-05 | – | – | – | –
55 | U55C G62A | < 1e-05 | < 1e-05 | – | < 1e-05 | < 1e-05
56 | U55C U69A | < 1e-05 | – | – | – | –
57 | U55G C68A C71U | < 1e-05 | – | – | – | –
58 | U55G G60A | < 1e-05 | – | – | – | –
59 | U56A G66A | 0.000167 ± 1.7e-05 | 0.00117 ± 0.00021 | 0.00718 ± 0.0011 | 0.00253 ± 0.00043 | 0.00039 ± 6.4e-05
60 | U56G G59C | < 1e-05 | < 1e-05 | – | – | < 1e-05
61 | U56G G63A | < 1e-05 | – | < 1e-05 | – | –
62 | U57A U65C | < 1e-05 | < 1e-05 | – | – | –
63 | U57C G63U | < 1e-05 | < 1e-05 | < 1e-05 | < 1e-05 | < 1e-05
64 | U57G C68G | 2.48e-05 ± 1.2e-05 | 4.72e-05 ± 1.4e-05 | – | 5.88e-05 ± 1.3e-05 | 4.02e-05 ± 1.5e-05
65 | U57G G59C | < 1e-05 | < 1e-05 | < 1e-05 | – | –
66 | C58A A64U | < 1e-05 | – | < 1e-05 | < 1e-05 | –
67 | C58A G59U C68U | < 1e-05 | – | – | – | –
68 | C58A U65G | < 1e-05 | – | – | – | –
69 | C58U C70U | < 1e-05 | – | – | – | –
70 | C58U G59C U65A C70U | < 1e-05 | – | – | – | –
71 | C58U G62C | < 1e-05 | < 1e-05 | < 1e-05 | < 1e-05 | < 1e-05
72 | G59A G66A | < 1e-05 | – | – | – | < 1e-05

Row | Variant | self-cleavage kobs at 40 uM GlcN6P (glucosamine-6-phosphate [1]) [s⁻¹] | self-cleavage kobs at 640 uM GlcN6P (glucosamine-6-phosphate [2]) [s⁻¹] | self-cleavage kobs at 10000 uM GlcN6P (glucosamine-6-phosphate [3]) [s⁻¹] | self-cleavage kobs at 2500 uM GlcN6P (glucosamine-6-phosphate [4]) [s⁻¹] | self-cleavage kobs at 160 uM GlcN6P (glucosamine-6-phosphate [5]) [s⁻¹]
73 | G59U C61U | < 1e-05 | < 1e-05 | < 1e-05 | – | –
74 | G59U C68A | < 1e-05 | – | – | – | –
75 | G59U G66A | < 1e-05 | – | – | – | < 1e-05
76 | G60A C71U | < 1e-05 | < 1e-05 | – | – | –
77 | G60A G66U | < 1e-05 | – | – | – | –
78 | G60C A64U | < 1e-05 | – | – | – | –
79 | G60C C68G | < 1e-05 | – | < 1e-05 | – | –
80 | G60C C71U | < 1e-05 | < 1e-05 | – | – | < 1e-05
81 | G60C G63U | < 1e-05 | < 1e-05 | < 1e-05 | – | < 1e-05
82 | G60C U65G | < 1e-05 | < 1e-05 | – | – | < 1e-05
83 | G60U C67U | < 1e-05 | < 1e-05 | < 1e-05 | – | < 1e-05
84 | G60U U69G | < 1e-05 | < 1e-05 | < 1e-05 | – | –
85 | C61G G66U | < 1e-05 | – | < 1e-05 | – | < 1e-05
86 | C61G U65G | < 1e-05 | < 1e-05 | < 1e-05 | – | –
87 | C61U A64C U65C C71U | < 1e-05 | – | – | < 1e-05 | –
88 | C61U A64G C70G | < 1e-05 | – | – | – | –
89 | C61U C70U | < 1e-05 | – | – | – | –
90 | G62A C70U | < 1e-05 | – | < 1e-05 | – | –
91 | G62A U65C | < 1e-05 | < 1e-05 | < 1e-05 | < 1e-05 | < 1e-05
92 | G62C C71U | < 1e-05 | < 1e-05 | < 1e-05 | < 1e-05 | < 1e-05
93 | G62C G63U | < 1e-05 | – | – | < 1e-05 | < 1e-05
94 | G62U A64G | < 1e-05 | < 1e-05 | – | – | < 1e-05
95 | G62U G66A | < 1e-05 | – | – | – | –
